Experimental data taken from PubChem BioAssay (NCI).
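Tested at 5 concentrations; 48 h exposure; 96-well plates; endpoints linearly interpolated, else capped at highest concentration. TGI marks complete inhibition of growth.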 Certain results were filed several times, with different values. This is not the full list of results. There may be further records. A record mostly stands for its own series of concentrations, which the source does not state; some values may only mark the edge of a range.

System: MDA-MB-468 breast
Experiment: NCI-60 cell line screen, 48 h

Cc1cc(C)cc(Nc2ccc([N+](=O)[O-])c(NCCN3CCOCC3)n2)c1
TGI: 2.93 nM and 1.69 µM
